The values below come from the RNAGym collection of RNA variant scans (doi:10.7554/elife.90254).

To fix the notation:
B1: LINE1-mini (parent)
chain: GGCAGAGCUCAACACAGCGUGGCAAAGUGGCUGUGGCUAGACUGCC

The source gives no read counts; variants with many changes may rest on few reads.

Variants of B1 are the subject of this data set. Briefly: self-cleavage, relative activity (ratio to wild type); higher = more cleavage; in vitro, sequencing; the parent is a self-cleaving ribozyme.
As to GGCAGAGCUCAAGACAGCGUGGCAAAGUGGCUGGGGCUAGACUGAA, the self-cleavage amounted to 0.02.

For the variant GGCAGAGCUCAAGACAGAGUGGCAAAGUUGCGUUGGCGAGACUGCC, the self-cleavage worked out at 0.05.

On to GGCAGAGCUCAAUACAGCGUGGCACAGUGGCUGUGGCUAGAGUGCC, for which the self-cleavage was 0.04.

Consider GGCAGAGCUCAAGACAGAGUGGCACAUUGGCAUUGGCUAGACUGCC, for which the self-cleavage is 0.01.

As to GGCAGAGCUCAAGACAGGCUGGCAAAGUGGCUGUGACUAGACUGCC, the self-cleavage turned out to be 0.05.

For the variant GGCAGAGCUCAAGACAGCAUUGCAAAGUGGCUGUGGCUAGACCGCC, the self-cleavage was found to be 0.02.

Take GGCAGAGCUCAAUACAGCGUGGCAUAGUGGCUGUGGCCCGAUUGCC: the self-cleavage is 0.04.

With GGCAGAGCUCAAUACUGCGUGUCAAAGUGGCUGUGGCUAGACUGCC, the self-cleavage is 0.08.

Consider GGCAGAGCUCAAUACAGCGUGGCAAAGUGGCUGUGGCUAGUUUGCC, for which the self-cleavage came out at 0.05.

For GGCAGAGCUCAAGACAGCGGGGCAAAGUGGCUGAGGCUAGACUGCU, the self-cleavage is 0.

As to GGCAGAGCUCAAUACAGCGUGGCAAAGUGGCUGUGGCUGGACUGGC, the self-cleavage was 0.03.

Turning to GGCAGAGCUCAAGACAGCAUGGCAAAGUCGCUGUGGCUAUAGUGCC, the self-cleavage turned out to be 0.02.

In the case of GGCAGAGCUCAAUACCGCGUGGCAAAGUGGCAGUGGCUAGACUGCC, the self-cleavage was found to be 0.03.

As for GGCAGAGCUCAAGACAGCGUGGCAGAGUGGCUGUGGCUAAACUGCC, the self-cleavage turned out to be 0.03.

GGCAGAGCUCAAGACAGUAUCGCAAGGUGGCUGUGGCUAGACUGCC: the self-cleavage was found to be 0.06.

Consider GGCAGAGCUCAAGACAGCGUUGCAAAGUAUCUGGGGCUAGACUGCC, for which the self-cleavage was determined as 0.

As to GGCAGAGCUCAAGACAGCGUGGCGAAAUGGCUGUGGCUAGACUGCC, the self-cleavage was determined as 0.21.

For the variant GGCAGAGCUCAAGUCACCGUGGCAAAGUGGCUGUGGCUAGACUACC, the self-cleavage stood at 0.06.

As to GGCAGAGCUCAAGACAGCGUGGCCAAGUGGCUGUGCCUAGACUGCC, the self-cleavage was 0.08.

For the variant GGCAGAGCUCAAGACAGCGUGGCAAAGUGUCUGAGGCUAGACUGCC, the self-cleavage amounted to 0.05.

Regarding GGCAGAGCUCAAGACAGCGUGGUAAAGUUGCUGUGGCUAGACUGCC, the self-cleavage was 0.28.

In the case of GGCAGAGCUCAAGACAGCGUGGCAGAGUGGCUGUAGCUAAACUGCC, the self-cleavage amounted to 0.03.

Regarding GGCAGAGCUCAAGACAGCGUGGCAAAGUGGCUGUGGCAGGACUGCC, the self-cleavage was 0.02.

For GGCAGAGCUCAAGACAGCGUGGCAAAGUCGCUCUUGUUAGACUGCC, the self-cleavage came to 0.06.

With GGCAGAGCUCAAGACAGCGUGGCUAAGUGGCUGUGGCUAUACUUCC, the self-cleavage came to 0.04.

On to GGCAGAGCUCAAUACCGCGUGGCAAAGUCGCUGUGGCUAGACUGCC, for which the self-cleavage was 0.23.

As to GGCAGAGCUCAAGACACCCUGGCAAAGUGGCUGCGGUUAGCCUGCG, the self-cleavage turned out to be 0.04.

For the variant GGCAGAGCUCAAUACGGUGUGGCAAAGUGGCUGUGGCUAGACCGCC, the self-cleavage was found to be 0.04.

Consider GGCAGAGCUCAAGAUAGCGUGGCAAAUUGGCUGUGGCUAGACUGCC, for which the self-cleavage amounted to 0.03.

As to GGCAGAGCUCAAGACCGGGUGGCAAAGUGGCUUUGGCUAGACUGCC, the self-cleavage was found to be 0.01.

GGCAGAGCUCAAUACAGCGUGGCAUAGUGGCUGUGGCUAGACCGCC: the self-cleavage was 0.03.

With GGCAGAGCUCAAGACAGCGUGGCAACGUUGCUGUGACUAGACUGCC, the self-cleavage amounted to 0.05.

In the case of GGCAGAGCUCAAGAAAGCGUGGCAACGUGGUCUUGGCUAGACUGCC, the self-cleavage worked out at 0.03.

Turning to GGCAGAGCUCAAGACAGCGUGGCAAAGUAGCUGUGGCUACACUGCC, the self-cleavage was 0.17.

In the case of GGCAGAGCUCAAUGCAGCGUGGCAAAGUCGCUGUGGCUAGACUGCC, the self-cleavage is 0.12.

Turning to GGCAGAGCUCAAGACAUCCUGGAUAAGUGGCCGUGGCUAGACUGCC, the self-cleavage turned out to be 0.05.

Regarding GGCAGAGCUCAAGACAGCGUCGCAAAGUGGCUGUGUCUAGACUUCC, the self-cleavage is 0.03.

As to GGCAGAGCUCAAGACAGCGUAGCAGAGUGGCUGUGUCUAGACUGCC, the self-cleavage came to 0.1.

As for GGCAGAGCUCAAGACAGCGUGGUAAAGUGGCUGUGGCUAGUCUGCC, the self-cleavage is 0.09.

In the case of GGCAGAGCUCAAGACACCGUGGCAAAGUGGAUGUGGCUAGACUGCC, the self-cleavage was found to be 0.

Take GGCAGAGCUCAAGACAGCGUGGCCAAGUGGCCUUGGCUAGACUUCC: the self-cleavage was 0.07.

Turning to GGCAGAGCUCAAGAUAGUGGGGCAAAGUGGCUGUGGUUAGUCAGCC, the self-cleavage worked out at 0.01.

For the variant GGCAGAGCUCAAGACAGCGUGGCAAAGUGGCUGUAGCUCGACUGCC, the self-cleavage came to 0.3.

On to GGCAGAGCUCAAGUCAGCUUGGCAAAGUGGCUGUGCCUAGACUGCC, for which the self-cleavage turned out to be 0.02.

As for GGCAGAGCUCAAGACAGAGUGACAAGCUGGCUGUGGCUAGACUGCC, the self-cleavage came out at 0.05.

On to GGCAGAGCUCAAGACGGCGUCGCAAAGUGGGUGUCGCAAGACUGCC, for which the self-cleavage was found to be 0.02.

As for GGCAGAGCUCAAGACAGCGUGGCAUAGUGGCUGUGGCUAGAAUGCC, the self-cleavage is 0.05.

For the variant GGCAGAGCUCAAUACAGCGUGGCCAAGUGGCUGUGGCUAGACCGCC, the self-cleavage is 0.03.

In the case of GGCAGAGCUCAAUACAGCGUGGCACAGUGGCUGUAGCUAGCCUGCC, the self-cleavage turned out to be 0.02.

On to GGCAGAGCUCAAGACAGUGUGGCAAAGUGGCUUUGGCUAUACCGCC, for which the self-cleavage stood at 0.03.

In the case of GGCAGAGCUCAAGACAGCGUGGCAGAGUGGAUGUGGCUAGACCGCC, the self-cleavage was 0.07.

As to GGCAGAGCUCAAUACAGCGUGGCAAGGUGGCUGUGGCUAGACUCCC, the self-cleavage was 0.11.

GGCAGAGCUCAAGACAGGGUGUCAAAGUGGCUGUGGCCAAACUGCC: the self-cleavage stood at 0.12.

For GGCAGAGCUCAAUACAGCGUGGCUAAGUAUGUGUGGCUAGACUGCC, the self-cleavage is 0.02.

On to GGCAGAGCUCAAUACUGCGUGGCAAACUAUAUGUGGCUAGACUGCC, for which the self-cleavage worked out at 0.04.

As to GGCAGAGCUCAAGACAGCGUGGCAAAGUGGCUGUGGCUAGCUUGCC, the self-cleavage stood at 0.1.
